# Laboratory results published in PubChem BioAssay AID1963576 (National Center for Advancing Translational Sciences (NCATS), 2024).
# Screen size: about 46,000 compounds; about 60 (0.1%) were called active. Not shown: some 3% with an inconclusive outcome. Calls follow the shape of the dose curve; as a rule, active = well fitted inhibition curve with a large enough effect; inconclusive = small, poorly fitted or top-dose-only effect; inactive = no such curve, though single readings can be large or run the other way. The list shows a part of the results.
# Assay: Primary qHTS assay for Inhibitors of ovarian cancer metastasis using an organotypic tumor microenvironment (TME) model. Also: nearly all actives have a fitted effect of over 65% in size.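 As to Potency: count of GFP cancer cells still attached after washing and fixation.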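 As to activity change, negative = inhibition: plate controls were DMSO wells for no effect and tomatine positive control wells for full effect.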
# Settings: SKOV3ip1-GFP adhesion/invasion on 3D omental model, fluorescence; series mostly up to 45.8 µM; activity change, negative = inhibition: at the top concentration
# How it was run: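 qHTS, 4-pt dose (0.36-46 umol/L); SKOV3ip1-GFP, 1,200 cells/well, no FBS; primary omental fibroblast/mesothelial co-culture 48 h pre-grown; 2 h RT + 16 h 37 C; PBS wash, 4% PFA; GFP count 488/509 nm.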
# Potency is read from the fitted curve at half-maximal effect.
Compound,"activity change, negative = inhibition",outcome,Potency
CC(=O)c1ccc(C(=O)N(Cc2cccnc2)c2nc3c(Cl)cccc3s2)cc1,inactive: -0.132%,–,–
COc1cc2c(cc1OC)C(COc1ccc(F)cc1)N(C(=O)c1ccccc1F)CC2 (stereo unspecified),inactive: -28.4%,–,–
CSc1cccc(NC(=O)Cn2nc(C)c3sc4ccccc4c3c2=O)c1,inactive: 4.38%,–,–
Cc1cccc(-c2nnc(SCC(=O)N3CCCc4ccccc43)o2)c1,inactive: -0.745%,–,–
COc1ccc(-n2c(C)nc3cc(C(=O)NC4CCCC4)ccc32)cc1,inactive: 1.54%,–,–
Cc1ccc(N2CCN(S(=O)(=O)c3ccc4oc(=O)c5ncn(C)c5c4c3)CC2)c(C)c1,inactive: 19.2%,–,–
CCOCCCNC(=O)Nc1cc(C(=O)NCc2ccc(C(C)C)cc2)ccc1N1CCCC1,inactive: 0.449%,–,–
CC(C)OCCCN(C)C1CCN(S(=O)(=O)c2csc(C(N)=O)c2)CC1,inactive: 39.3%,–,–
Cn1nnnc1SCCNCc1ccccc1OCc1ccc(Cl)cc1Cl,inactive: -6.4%,–,–
Cc1cccc(CS(=O)(=O)c2ncc(Cl)c(C(=O)Nc3nc4ccc(F)cc4s3)n2)c1,–,inactive,–
COC(=O)C(C)NC(=O)N1CCN(c2nnc(C)c3c(C)n(-c4ccc(Cl)cc4)nc23)CC1 (stereo unspecified),inactive: 2.84%,–,–
Cc1ccc(S(=O)(=O)c2nnn3c2nc(NCc2cccs2)c2sccc23)cc1C,–,inactive,–
Cc1cc(C)cc(NC(=O)C2CCN(c3cc(C)nc4c(-c5ccc(Cl)cc5)c(C)nn34)CC2)c1,inactive: -5.23%,–,–
O=C(Cc1ccc(F)cc1)NCCc1csc(-c2cccc(F)c2)n1,inactive: 7.89%,–,–
CO[C@@H](C(=O)N1Cc2[nH]nc(NC(=O)c3ccc(N4CCN(C)CC4)cc3)c2C1)c1ccccc1,–,–,active: 13.2 µM
CCOc1ccc(N(CC)S(=O)(=O)N2CCCC(C(=O)NCc3ccc(Cl)cc3)C2)cc1 (stereo unspecified),inactive: 4.29%,–,–
CC(C)NC(=O)N1CCC(N2CCN(Cc3ccc(F)cc3)C(=O)C2=O)CC1,inactive: -0.329%,–,–
CN1CCN(C2=Nc3cc(Cl)ccc3Nc3ccccc32)CC1,inactive: -12.8%,–,–
COc1ccc(-c2noc(Cn3c(=O)c4ccccc4n(CC(=O)Nc4cccc(C(F)(F)F)c4)c3=O)n2)cc1,inactive: -6.74%,–,–
Cc1ccc(C)c(NS(=O)(=O)c2ccc3c(c2)n(C)c(=O)n3C)c1,inactive: 2.36%,–,–
Cc1oc(-c2cccc(Br)c2)nc1Cn1c(=O)cc(-c2ccccc2)c2c(C)nn(C)c21,inactive: 0.329%,–,–
O=S(=O)(Nc1cccc(-c2ccc(N3CCCCCC3)nn2)c1)c1ccccc1,–,inactive,–
CCn1c(SCC(=O)N2CCC(C)CC2)nnc1-c1ccccc1O,inactive: -16.5%,–,–
CCc1nc2onc(C)c2c(=O)n1CC(=O)O,–,inactive,–
O=C(c1cccc(Cl)c1)N(Cc1ccco1)Cc1ccccc1Cl,inactive: -6.87%,–,–
Cc1ccc(S(=O)(=O)NCCc2sc3nc(-c4ccccc4)nn3c2C)cc1C,–,inactive,–
